Legend:
Experiment in all cases: ELISA: Siglec-Fc coated at 0.2 µg/mL, biotin-labeled AI-071 titrated 2-fold, avidin-HRP
[1] = molecular target: T1, human Siglec-1 Fc fusion protein (human, UniProt Q9BZZ2 20-1641, limits assumed)
T1 construct: Recombinant IgG-Fc fusion, coated at 0.2 µg/mL; not shown: IgG-Fc
Procedure: (§1) Briefly, 2-fold dilutions of biotin-labeled AI-071 fusion protein were added into 96-well plated coated with indicated Siglec-Fc fusion proteins (all coating at 0.2 μg/mL), the amount of bound AI-071 protein was then detected by adding Avidin-HRP and OPD.
(§2) To evaluate the spectrum of Siglecs that binds to AI-071, recombinant IgG-Fc fusion protein containing one of the human siglec family members (Siglec-1, 2, 3, 4a, 5, 6, 7, 8, 9, 11, 14 and 15) were coated in 96-well plates and their binding to biotin-labeled AI-071 protein was detected in ELISA. The representative ELISA results are shown in FIG. 4B (Siglec-1, 2, 3, 4a, 5 and 6) and FIG. 4C (Siglec-7, 8, 9, 11, 14 and 15).

[2] = molecular target: T2, human Siglec-8 Fc fusion protein (human, UniProt Q9NYZ4 17-363, limits assumed)
T2 construct: Recombinant IgG-Fc fusion, coated at 0.2 µg/mL; not shown: IgG-Fc
Procedure: as §1, §2

[3] = molecular target: T3, human Siglec-14 Fc fusion protein (human, UniProt Q08ET2 17-358, limits assumed)
T3 construct: Recombinant IgG-Fc fusion, coated at 0.2 µg/mL; not shown: IgG-Fc
T3 sequence (looked up): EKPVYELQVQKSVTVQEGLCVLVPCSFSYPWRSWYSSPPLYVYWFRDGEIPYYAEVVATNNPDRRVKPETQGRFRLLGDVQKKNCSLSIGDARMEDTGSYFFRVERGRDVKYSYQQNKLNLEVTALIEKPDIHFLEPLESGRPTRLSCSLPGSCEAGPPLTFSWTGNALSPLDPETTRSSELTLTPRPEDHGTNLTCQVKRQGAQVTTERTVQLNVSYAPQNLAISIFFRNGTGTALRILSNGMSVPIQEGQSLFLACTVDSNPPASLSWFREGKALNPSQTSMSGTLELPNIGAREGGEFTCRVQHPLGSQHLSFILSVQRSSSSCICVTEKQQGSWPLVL
Procedure: as §1, §2

[4] = molecular target: T4, human Siglec-9 Fc fusion protein (human, UniProt Q9Y336 18-348, limits assumed)
T4 construct: Recombinant IgG-Fc fusion, coated at 0.2 µg/mL; not shown: IgG-Fc
Procedure: as §1, §2

[5] = molecular target: T5, human Siglec-2 Fc fusion protein (human, UniProt P20273 20-687, limits assumed)
T5 construct: Recombinant IgG-Fc fusion, coated at 0.2 µg/mL; not shown: IgG-Fc
T5 sequence (looked up): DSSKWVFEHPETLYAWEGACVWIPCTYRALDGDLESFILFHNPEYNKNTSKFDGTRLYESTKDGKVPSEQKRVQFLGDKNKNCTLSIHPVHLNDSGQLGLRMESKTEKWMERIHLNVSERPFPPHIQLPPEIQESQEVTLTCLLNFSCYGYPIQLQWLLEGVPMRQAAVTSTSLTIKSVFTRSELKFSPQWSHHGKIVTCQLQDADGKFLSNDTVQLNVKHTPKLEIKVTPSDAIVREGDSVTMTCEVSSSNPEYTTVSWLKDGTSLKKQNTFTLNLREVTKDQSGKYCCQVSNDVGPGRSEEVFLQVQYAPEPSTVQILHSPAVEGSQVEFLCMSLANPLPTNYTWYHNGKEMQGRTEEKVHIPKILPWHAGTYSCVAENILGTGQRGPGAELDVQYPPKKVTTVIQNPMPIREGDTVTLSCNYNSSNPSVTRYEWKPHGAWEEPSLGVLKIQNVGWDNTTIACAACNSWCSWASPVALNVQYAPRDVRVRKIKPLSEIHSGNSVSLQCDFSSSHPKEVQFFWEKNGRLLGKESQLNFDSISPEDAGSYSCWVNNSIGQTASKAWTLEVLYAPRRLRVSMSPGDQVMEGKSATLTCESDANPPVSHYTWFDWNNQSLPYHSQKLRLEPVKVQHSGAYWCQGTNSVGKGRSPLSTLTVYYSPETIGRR
Procedure: as §1, §2

[6] = molecular target: T6, human Siglec-5 Fc fusion protein (human, UniProt O15389 17-434, limits assumed)
T6 construct: Recombinant IgG-Fc fusion, coated at 0.2 µg/mL; not shown: IgG-Fc
T6 sequence (looked up): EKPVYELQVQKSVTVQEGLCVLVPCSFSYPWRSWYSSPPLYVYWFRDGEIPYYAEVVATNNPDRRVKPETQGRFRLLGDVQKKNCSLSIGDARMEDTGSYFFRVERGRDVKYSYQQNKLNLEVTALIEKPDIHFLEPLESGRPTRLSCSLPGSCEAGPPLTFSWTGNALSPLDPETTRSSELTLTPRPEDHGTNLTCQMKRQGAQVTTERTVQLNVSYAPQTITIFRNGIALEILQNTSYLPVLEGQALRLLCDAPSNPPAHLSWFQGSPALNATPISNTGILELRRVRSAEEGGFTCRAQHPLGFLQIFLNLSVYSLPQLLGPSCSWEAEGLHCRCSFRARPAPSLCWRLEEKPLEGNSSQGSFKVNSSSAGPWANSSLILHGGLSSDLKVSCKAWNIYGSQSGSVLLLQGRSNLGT
Procedure: as §1, §2

[7] = molecular target: T7, human Siglec-7 Fc fusion protein (human, UniProt Q9Y286 19-357, limits assumed)
T7 construct: Recombinant IgG-Fc fusion, coated at 0.2 µg/mL; not shown: IgG-Fc
Procedure: as §1, §2

Measured: binding result

T7 sequence (Q9Y286 19-357 limits assumed): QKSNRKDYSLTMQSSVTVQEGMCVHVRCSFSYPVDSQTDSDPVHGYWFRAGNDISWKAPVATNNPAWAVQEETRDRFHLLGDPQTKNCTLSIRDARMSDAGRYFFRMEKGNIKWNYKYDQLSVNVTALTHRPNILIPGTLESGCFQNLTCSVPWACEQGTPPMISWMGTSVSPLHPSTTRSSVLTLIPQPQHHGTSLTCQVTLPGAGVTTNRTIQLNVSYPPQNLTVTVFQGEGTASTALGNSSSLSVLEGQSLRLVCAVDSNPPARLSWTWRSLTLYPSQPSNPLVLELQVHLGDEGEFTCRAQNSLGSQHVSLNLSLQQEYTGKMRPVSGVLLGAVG
T2 sequence (Q9NYZ4 17-363 limits assumed): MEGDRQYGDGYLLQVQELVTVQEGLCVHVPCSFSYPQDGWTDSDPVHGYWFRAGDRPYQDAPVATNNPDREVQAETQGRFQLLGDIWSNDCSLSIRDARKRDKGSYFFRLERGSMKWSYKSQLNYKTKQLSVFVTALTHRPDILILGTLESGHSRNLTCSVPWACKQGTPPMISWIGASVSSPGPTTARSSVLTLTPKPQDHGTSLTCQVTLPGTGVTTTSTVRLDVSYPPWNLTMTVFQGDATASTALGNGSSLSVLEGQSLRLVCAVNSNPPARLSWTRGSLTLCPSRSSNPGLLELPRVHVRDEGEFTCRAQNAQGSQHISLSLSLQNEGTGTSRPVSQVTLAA
T1 sequence (Q9BZZ2 20-1641 limits assumed): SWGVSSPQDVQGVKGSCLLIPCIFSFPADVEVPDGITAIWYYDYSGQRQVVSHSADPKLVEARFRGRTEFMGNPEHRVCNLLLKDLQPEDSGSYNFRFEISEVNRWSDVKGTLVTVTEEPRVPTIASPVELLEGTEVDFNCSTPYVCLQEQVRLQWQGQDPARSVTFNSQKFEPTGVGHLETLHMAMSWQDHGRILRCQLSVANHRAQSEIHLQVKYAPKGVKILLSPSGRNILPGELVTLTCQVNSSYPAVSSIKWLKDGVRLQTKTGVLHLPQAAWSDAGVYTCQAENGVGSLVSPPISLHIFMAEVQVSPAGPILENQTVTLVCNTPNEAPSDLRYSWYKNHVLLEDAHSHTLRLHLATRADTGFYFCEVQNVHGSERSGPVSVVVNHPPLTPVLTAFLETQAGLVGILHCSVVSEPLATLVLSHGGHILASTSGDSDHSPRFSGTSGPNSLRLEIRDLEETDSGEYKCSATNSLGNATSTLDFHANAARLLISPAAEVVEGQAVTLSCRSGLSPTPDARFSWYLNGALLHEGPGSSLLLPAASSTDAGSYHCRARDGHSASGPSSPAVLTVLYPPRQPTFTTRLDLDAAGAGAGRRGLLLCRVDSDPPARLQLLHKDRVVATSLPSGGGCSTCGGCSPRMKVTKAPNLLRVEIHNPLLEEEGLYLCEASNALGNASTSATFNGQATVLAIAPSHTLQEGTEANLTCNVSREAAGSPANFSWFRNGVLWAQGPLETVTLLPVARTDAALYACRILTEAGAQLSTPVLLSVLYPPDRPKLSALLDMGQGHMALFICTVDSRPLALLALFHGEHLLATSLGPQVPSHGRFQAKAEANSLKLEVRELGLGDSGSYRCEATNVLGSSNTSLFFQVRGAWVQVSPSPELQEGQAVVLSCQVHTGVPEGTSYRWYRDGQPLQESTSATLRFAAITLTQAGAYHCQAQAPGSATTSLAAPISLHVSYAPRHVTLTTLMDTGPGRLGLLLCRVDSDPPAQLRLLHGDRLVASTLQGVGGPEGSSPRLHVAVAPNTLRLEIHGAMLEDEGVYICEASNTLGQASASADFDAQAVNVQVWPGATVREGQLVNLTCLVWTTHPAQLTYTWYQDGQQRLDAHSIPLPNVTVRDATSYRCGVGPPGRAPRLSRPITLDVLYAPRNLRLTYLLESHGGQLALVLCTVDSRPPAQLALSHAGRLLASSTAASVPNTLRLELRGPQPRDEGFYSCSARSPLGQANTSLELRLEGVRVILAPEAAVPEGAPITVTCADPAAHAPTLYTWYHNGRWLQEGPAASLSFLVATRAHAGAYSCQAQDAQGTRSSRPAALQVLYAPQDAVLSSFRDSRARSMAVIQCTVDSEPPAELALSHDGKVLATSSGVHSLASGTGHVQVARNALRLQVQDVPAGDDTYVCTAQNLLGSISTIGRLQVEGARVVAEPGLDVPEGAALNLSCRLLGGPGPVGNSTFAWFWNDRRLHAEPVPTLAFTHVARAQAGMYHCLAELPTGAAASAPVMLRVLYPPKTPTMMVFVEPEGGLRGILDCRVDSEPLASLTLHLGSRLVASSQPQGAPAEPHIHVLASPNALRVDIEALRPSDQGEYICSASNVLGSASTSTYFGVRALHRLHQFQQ
T4 sequence (Q9Y336 18-348 limits assumed): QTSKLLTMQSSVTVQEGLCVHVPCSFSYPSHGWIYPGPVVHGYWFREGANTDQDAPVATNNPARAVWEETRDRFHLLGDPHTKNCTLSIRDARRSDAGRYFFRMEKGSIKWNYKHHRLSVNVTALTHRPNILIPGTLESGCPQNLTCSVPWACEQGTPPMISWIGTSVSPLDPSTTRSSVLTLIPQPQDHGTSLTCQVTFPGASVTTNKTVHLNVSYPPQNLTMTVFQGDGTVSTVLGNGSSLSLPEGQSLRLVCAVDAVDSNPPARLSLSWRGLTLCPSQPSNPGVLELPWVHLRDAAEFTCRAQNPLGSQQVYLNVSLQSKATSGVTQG

B1: AI-071 fusion protein (Fc fusion)
chain: STSNSGLAPNPTSTSNSGLAPNPTSTSNSGLAPNPTSTSNSGLAPNPTSTSNSGLAPNPT[human IgG1 Fc skipped]
notes: Disulfide-linked homodimer; Used biotin-labeled in the Siglec panel ELISA; also called AI-071 Fc-fusion protein; AI-71
binds: all assays above
